Laboratory results from paper PMC5892938.
The other results are listed elsewhere or left out. At the low end of the ranking the order means little.

Target: GST-SBP-SLBP (stem-loop binding protein) (UniProt Q14493)
Test: targeted RNA Bind-n-Seq;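 note: DESeq read counts versus GST-SBP nonspecific binding control pulldown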
Settings: RBNS binding buffer: 25 mM Tris pH 7.5, 150 mM KCl, 3 mM MgCl2, 0.1% Tween, 0.5 mg/mL BSA, 1 mM DTT; 27 nM protein, 750 pM RNA pool; temperature not stated; high values mean tight binding

Sequence	binding signal (log2 fold change)
GGUCACGUCUCAAUCAACUCAUUUUCAGGAGUUUACUCCUGCUUAUUCAACAGCUCGCAGUCAAG	0.078
GGUCACGUCUCAAUCAACUCUAAAGAGGGGGGGAAAACCCCUUUGCCCUCAAAUUCAACAGCUCGCAGUCAAG	-0.065
GGUCACGUCUCAAUCAACUCAUCGUCAGGAGUUUCCUCCUGUUAUCUCAACAGCUCGCAGUCAAG	0.0379
GGUCACGUCUCAAUCAACUCUAUCCCAGGAGUUUACUCCUGCAUUUUCAACAGCUCGCAGUCAAG	-0.00693
GGUCACGUCUCAAUCAACUCUACUCCAGGAGUUUUCUCCUGCUAAUUCAACAGCUCGCAGUCAAG	-0.02
GGUCACGUCUCAAUCAACUCAUUUUCCAGGGAAACCCCUGGCAAUCUCAACAGCUCGCAGUCAAG	0.0974
GGUCACGUCUCAAUCAACUCUACUCCCAGGGAAAACCCUGGCAUACUCAACAGCUCGCAGUCAAG	0.0528
GGUCACGUCUCAAUCAACUCAUUUCCCAGGGAAACCCCUGGUAUUUUCAACAGCUCGCAGUCAAG	-0.0436
GGUCACGUCUCAAUCAACUCCUAAGAGGGGGGGAAAACCCCUUUGCCCUCAAUUUCAACAGCUCGCAGUCAAG	-0.372
GGUCACGUCUCAAUCAACUCUUCCUCAGGAGUUUCCUCCUGCAAAUUCAACAGCUCGCAGUCAAG	0.0607
GGUCACGUCUCAAUCAACUCAAUUUCCAGGGAAACCCCUGGUAUACUCAACAGCUCGCAGUCAAG	-0.133
GGUCACGUCUCAAUCAACUCAUCUCCAGGAGUUUCCUCCUGUUUACUCAACAGCUCGCAGUCAAG	0.131
GGUCACGUCUCAAUCAACUCAUCUUCAGGAGUUUACUCCUGCAUUUUCAACAGCUCGCAGUCAAG	0.11
GGUCACGUCUCAAUCAACUCAUUCUCCAGGGAAAGCCCUGGCUUUCUCAACAGCUCGCAGUCAAG	0.0375
GGUCACGUCUCAAUCAACUCUAUUCCAGGAGUUUCCUCCUGCUUUUUCAACAGCUCGCAGUCAAG	-0.0924
GGUCACGUCUCAAUCAACUCAACUCCCAGGGAAAGCCCUGGUUAUCUCAACAGCUCGCAGUCAAG	-0.195
GGUCACGUCUCAAUCAACUCAAUCUCCAGGGAAAGCCCUGGCUAUGUCAACAGCUCGCAGUCAAG	0.00123
GGUCACGUCUCAAUCAACUCUUUCUCCAGGGAAACCCCUGGUUAUCUCAACAGCUCGCAGUCAAG	0.287
GGUCACGUCUCAAUCAACUCAAUAGAGGGGGGGAAAACCCCUUUGCCCUCAUCGUCAACAGCUCGCAGUCAAG	0.0194
GGUCACGUCUCAAUCAACUCAUCGUCAGGAGUUUGCUCCUGCUAUCUCAACAGCUCGCAGUCAAG	0.163
GGUCACGUCUCAAUCAACUCUAUUCCCAGGGAAAACCCUGGCUAAUUCAACAGCUCGCAGUCAAG	-0.0931
GGUCACGUCUCAAUCAACUCAUUCCCCAGGGAAAUCCCUGGCUUACUCAACAGCUCGCAGUCAAG	0.0381
GGUCACGUCUCAAUCAACUCAACUCCAGGAGUUUUCUCCUGUUAAUUCAACAGCUCGCAGUCAAG	-0.099
GGUCACGUCUCAAUCAACUCAAUAGAGGGGGGGAAAACCCCUUUACCCUCCGCAUCAACAGCUCGCAGUCAAG	-0.0145
GGUCACGUCUCAAUCAACUCAUCCCCAGGAGUUUUCUCCUGCUUACUCAACAGCUCGCAGUCAAG	0.175

Sequence	binding signal (log2 fold change)
GGUCACGUCUCAAUCAACUCAUCUCCCAGGGAAAUCCCUGGUUAUUUCAACAGCUCGCAGUCAAG	0.034
GGUCACGUCUCAAUCAACUCUUUUCCCAGGGAAAUCCCUGGCUUUUUCAACAGCUCGCAGUCAAG	0.0975
GGUCACGUCUCAAUCAACUCAAGUCCCAGGGAAACCCCUGGUAAAUUCAACAGCUCGCAGUCAAG	0.0355
GGUCACGUCUCAAUCAACUCUUUUUCAGGAGUUUUCUCCUGCUUACUCAACAGCUCGCAGUCAAG	0.0398
GGUCACGUCUCAAUCAACUCUACUCCCAGGGAAAUCCCUGGCUAAUUCAACAGCUCGCAGUCAAG	-0.0905
GGUCACGUCUCAAUCAACUCUUCGCCAGGAGUUUCCUCCUGUAAUUUCAACAGCUCGCAGUCAAG	0.111
GGUCACGUCUCAAUCAACUCAUCAGAGGGGGGGAAAACCCCUUUACCCUCAUCAUCAACAGCUCGCAGUCAAG	-0.283
GGUCACGUCUCAAUCAACUCCCCAGAGGGGGGGAAAACCCCUUUACCCUCACCGUCAACAGCUCGCAGUCAAG	0.0121
GGUCACGUCUCAAUCAACUCAACUUCAGGAGUUUGCUCCUGCAUUUUCAACAGCUCGCAGUCAAG	0.0825
GGUCACGUCUCAAUCAACUCAUCUUCCAGGGAAAUCCCUGGCAUACUCAACAGCUCGCAGUCAAG	-0.00853
GGUCACGUCUCAAUCAACUCAUCCCCCAGGGAAAGCCCUGGCAUACUCAACAGCUCGCAGUCAAG	0.0652
GGUCACGUCUCAAUCAACUCUUCGUCCAGGGAAAGCCCUGGCAUAUUCAACAGCUCGCAGUCAAG	-0.192
GGUCACGUCUCAAUCAACUCUUCUUCAGGAGUUUCCUCCUGUUUUCUCAACAGCUCGCAGUCAAG	-0.0536
GGUCACGUCUCAAUCAACUCAUUUUCAGGAGUUUGCUCCUGCAAUUUCAACAGCUCGCAGUCAAG	-0.0851
GGUCACGUCUCAAUCAACUCUACUCCCAGGGAAAUCCCUGGUUUUUUCAACAGCUCGCAGUCAAG	-0.117
GGUCACGUCUCAAUCAACUCAUCCCCAGGAGUUUCCUCCUGCUAAUUCAACAGCUCGCAGUCAAG	0.178
GGUCACGUCUCAAUCAACUCAUACGAGGGGGGGAAAACCCCUUUACCCUCAUUAUCAACAGCUCGCAGUCAAG	0.07
GGUCACGUCUCAAUCAACUCUAAAGAGGGGGGGAAAACCCCUUUACCCUCACCGUCAACAGCUCGCAGUCAAG	-0.124
GGUCACGUCUCAAUCAACUCAACUCCAGGAGUUUUCUCCUGUUUUUUCAACAGCUCGCAGUCAAG	-0.0548
GGUCACGUCUCAAUCAACUCAAUAGAGGGGGGGAAAACCCCUUUACCCUCACAUUCAACAGCUCGCAGUCAAG	-0.13
GGUCACGUCUCAAUCAACUCAGUUCCAGGAGUUUCCUCCUGUUUUUUCAACAGCUCGCAGUCAAG	-0.214
GGUCACGUCUCAAUCAACUCUUUCUCAGGAGUUUUCUCCUGUAUUUUCAACAGCUCGCAGUCAAG	0.00747
GGUCACGUCUCAAUCAACUCAUCUCCAGGAGUUUUCUCCUGCAAUUUCAACAGCUCGCAGUCAAG	0.0492
GGUCACGUCUCAAUCAACUCAUUAGAGGGGGGGAAAACCCCUUUGCCCUCAAUCUCAACAGCUCGCAGUCAAG	-0.0183
GGUCACGUCUCAAUCAACUCCCCAGAGGGGGGGAAAACCCCUUUACCCUCAAAUUCAACAGCUCGCAGUCAAG	0.402

Sequence	binding signal (log2 fold change)
GGUCACGUCUCAAUCAACUCAUCUCCAGGAGUUUACUCCUGUUAACUCAACAGCUCGCAGUCAAG	-0.0291
GGUCACGUCUCAAUCAACUCUACUCCAGGAGUUUACUCCUGUUUUUUCAACAGCUCGCAGUCAAG	-0.0335
GGUCACGUCUCAAUCAACUCUUUCCCCAGGGAAAUCCCUGGUUUUCUCAACAGCUCGCAGUCAAG	0.0315
GGUCACGUCUCAAUCAACUCAAUUCCAGGAGUUUUCUCCUGCUAUCUCAACAGCUCGCAGUCAAG	-0.0411
GGUCACGUCUCAAUCAACUCUUCUUCAGGAGUUUCCUCCUGCAAUCUCAACAGCUCGCAGUCAAG	0.0291
GGUCACGUCUCAAUCAACUCUAUCUCCAGGGAAACCCCUGGCAUUCUCAACAGCUCGCAGUCAAG	-0.0594
GGUCACGUCUCAAUCAACUCUUCUUCCAGGGAAAGCCCUGGUAAUCUCAACAGCUCGCAGUCAAG	-0.104
GGUCACGUCUCAAUCAACUCUAUCCCAGGAGUUUUCUCCUGUUUUUUCAACAGCUCGCAGUCAAG	0.0462
GGUCACGUCUCAAUCAACUCUAUCCCCAGGGAAAACCCUGGUAAUCUCAACAGCUCGCAGUCAAG	-0.331
GGUCACGUCUCAAUCAACUCUUCCCCCAGGGAAAUCCCUGGCAAUCUCAACAGCUCGCAGUCAAG	-0.178
GGUCACGUCUCAAUCAACUCAAUCCCAGGAGUUUACUCCUGUAUACUCAACAGCUCGCAGUCAAG	0.0902
GGUCACGUCUCAAUCAACUCAAUUUCCAGGGAAAUCCCUGGUAUACUCAACAGCUCGCAGUCAAG	0.0713
GGUCACGUCUCAAUCAACUCUUUCUCCAGGGAAAUCCCUGGUAUACUCAACAGCUCGCAGUCAAG	-0.0559
GGUCACGUCUCAAUCAACUCUUCCUCAGGAGUUUUCUCCUGUAUAUUCAACAGCUCGCAGUCAAG	-0.094
GGUCACGUCUCAAUCAACUCUAUAGAGGGGGGGAAAACCCCUUUACCCUCCAAUUCAACAGCUCGCAGUCAAG	0.227
GGUCACGUCUCAAUCAACUCUUUUUCAGGAGUUUUCUCCUGCUAUUUCAACAGCUCGCAGUCAAG	0.086
GGUCACGUCUCAAUCAACUCAAAAGAGGGGGGGAAAACCCCUUUACCCUCAAGAUCAACAGCUCGCAGUCAAG	-0.129
GGUCACGUCUCAAUCAACUCCCUCGAGGGGGGGAAAACCCCUUUACCCUCACCAUCAACAGCUCGCAGUCAAG	0.017
GGUCACGUCUCAAUCAACUCCUUCGAGGGGGGGAAAACCCCUUUACCCUCUCAAUCAACAGCUCGCAGUCAAG	-0.264
GGUCACGUCUCAAUCAACUCUUCUUCAGGAGUUUUCUCCUGUAAUGUCAACAGCUCGCAGUCAAG	-0.107
GGUCACGUCUCAAUCAACUCAGUCUCAGGAGUUUACUCCUGUUUUUUCAACAGCUCGCAGUCAAG	-0.0775
GGUCACGUCUCAAUCAACUCCUCAGAGGGGGGGAAAACCCCUUUGCCCUCAUAUUCAACAGCUCGCAGUCAAG	-0.0359
GGUCACGUCUCAAUCAACUCUUCCCCCAGGGAAACCCCUGGUAUUUUCAACAGCUCGCAGUCAAG	0.0885
GGUCACGUCUCAAUCAACUCUUAAGAGGGGGGGAAAACCCCUUUGCCCUCAUUAUCAACAGCUCGCAGUCAAG	0.141
